Reference: PubChem BioAssay AID624417 (National Center for Advancing Translational Sciences (NCATS), 2012)
“And” between values parts separate entries of the source, which are not always exact repeats. Identical values can stand only once. Hit rate of the full screen: of about 410,000 compounds, about 6,400 (1.6%) were called active. Inconclusive results, whose numbers are uncertain, are shown with a selection of clear calls. The call rests on the fitted dose curve; in most records, active means well fitted inhibition curve with a large enough effect; inconclusive means small, poorly fitted or top-dose-only effect; inactive means no such curve, though single readings can be large or run the other way. Potencies of inconclusive entries are doubtful fits and often do not repeat.

These molecules were tested against Glucagon-like peptide 1 receptor (Homo sapiens) (UniProt P43220) (assay: qHTS of GLP-1 Receptor Inverse Agonists (Inhibition Mode)). Conditions: HEK293 GLP-1R CRE-luciferase, luminescence, 24 h, GLP-1R form is constitutively active; activity change, negative = inhibition: at 38.3 µM (top of the series) unless noted.
Summary of the method: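 Inverse agonists were sought by their lowering of basal cAMP reporter luciferase output in HEK293 cells stably carrying constitutively active human GLP-1R, after 24 h compound treatment.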
Further: nearly all actives have a fitted effect of over 55% in size.
On the % scale 0 is the no-effect control and ±100 the full control effect; potency means the concentration at half of the fitted maximal effect; tags describe the fitted curve by direction and shape.

Sequence of UniProt P43220 (P43220 whole entry, looked up): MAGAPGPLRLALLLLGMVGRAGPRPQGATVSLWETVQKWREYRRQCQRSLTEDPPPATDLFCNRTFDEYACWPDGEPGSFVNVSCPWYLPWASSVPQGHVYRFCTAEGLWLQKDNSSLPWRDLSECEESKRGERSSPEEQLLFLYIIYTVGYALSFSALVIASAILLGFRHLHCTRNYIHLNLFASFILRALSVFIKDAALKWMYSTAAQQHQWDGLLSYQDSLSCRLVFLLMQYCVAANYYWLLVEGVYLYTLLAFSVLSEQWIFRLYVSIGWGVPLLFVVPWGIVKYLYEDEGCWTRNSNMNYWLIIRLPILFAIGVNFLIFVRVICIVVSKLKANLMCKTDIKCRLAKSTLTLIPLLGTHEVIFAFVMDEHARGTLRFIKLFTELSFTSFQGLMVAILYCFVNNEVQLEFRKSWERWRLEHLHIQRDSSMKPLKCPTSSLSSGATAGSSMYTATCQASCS

| SMILES | Potency | activity change, negative = inhibition |
| --- | --- | --- |
| OC(CON=C1c2ccccc2-c2ccccc21)CN1CCNCC1 (stereo not drawn) | inconclusive: 6.31 µM [inhibitor, partial curve, poor fit] |  |
| O=C1CN(C(=O)c2ccccc2F)C(c2ccc(F)cc2)c2cc(Br)ccc2N1 (stereo not drawn) | inconclusive: 12.6 µM [inhibitor, single point] |  |
| COc1ccc2nc(N3CCCC(C(=O)NCCc4ccc(OC)c(OC)c4)C3)sc2c1 (stereo not drawn) | inconclusive: 10 µM [inhibitor, partial curve] |  |
| O=C(NCCCn1ccnc1)C1CCN(S(=O)(=O)c2ccc(F)cc2)CC1 | inconclusive: 8.91 µM [inhibitor, partial curve, poor fit] |  |
| O=C(Oc1ccc2ccccc2c1Cl)N1CCCCCC1 | inconclusive: 7.08 µM [inhibitor, partial curve, poor fit] |  |
| Cc1ccc(NC(=O)CS(=O)CC(=O)N(c2ccc(C)cc2)C(C)C(=O)NC2CCCCC2)cc1 (stereo not drawn) | inconclusive: 5.62 µM [inhibitor, full curve, poor fit] |  |
| COc1ccc(NC(=O)Nc2nnc(-c3ccncc3)s2)cc1 | inconclusive: 28.2 µM [inhibitor, single point] |  |
| ClCC(CNCc1ccccc1)c1ccccc1 (stereo not drawn) | inconclusive: 11.2 µM [inhibitor, single point] |  |
| COc1ccc(CSCC(=O)N/N=C/c2ccccc2OCc2ccccc2)cc1 | inconclusive: 8.91 µM [inhibitor, single point] |  |
| Fc1ccc(/C=N/Nc2nc3ccccc3[nH]2)cc1F | inactive |  |
| CCC1(c2ccc(Cl)cc2)NC(=O)N(CC(=O)NC2CCCC(C)C2C)C1=O (stereo not drawn) | inconclusive: 8.91 µM [inhibitor, partial curve, poor fit] |  |
| S=C(Nc1ccccc1Oc1ccccc1)NC1CCCC1 | inconclusive: 28.2 µM [inhibitor, single point] |  |
| Fc1ccc(F)c(CNc2ncnc3cc(Cl)ccc23)c1 | inconclusive: 4.47 µM [inhibitor, partial curve] |  |
| Cc1cc(Cl)ccc1NC(=S)NCc1cccs1 | inconclusive: 8.91 µM [inhibitor, partial curve, poor fit] |  |
| COc1cccc(CN2CCN(Cc3cc4ccccc4o3)CC2CCO)c1 (stereo not drawn) | inconclusive: 10 µM [inhibitor, single point] |  |
| Cc1ccc(CCNC(=O)c2cc3n(n2)CCCN(Cc2ccc(C)cc2)C3=O)cc1 | inactive |  |
| COc1cc2c(cc1OC)CN(CC(O)c1ccccc1)CC2 (stereo not drawn) | inactive |  |
| Cc1cccc(Cn2c(COc3ccc(Cl)cc3)nc3ccccc32)c1 | inactive |  |
| CC1(C)OC(=O)C2=C(C[C@@H](C3CCCCC3)O[C@H]2c2ccc(F)cc2)O1 | inconclusive: 11.2 µM [inhibitor, partial curve, poor fit] |  |
| COc1cccc(CN2CCC(N(CCc3ccccc3)Cc3ccccc3)CC2)c1OC | active: 10 µM |  |
| COc1cc(S(=O)(=O)N2CCCCC2)c(OC)cc1Br | inconclusive: 1.41 µM [inhibitor, partial curve, poor fit] |  |

| SMILES | Potency | activity change, negative = inhibition |
| --- | --- | --- |
| CSCCC(C(=O)Nc1c(C)cccc1C)n1c(COc2ccc(C)cc2)nc2ccccc21 (stereo not drawn) | inconclusive: 12.6 µM [inhibitor, single point] |  |
| COc1cccc(CNc2nc(NC(C)C)nc3ccsc23)c1OC | active: 11.2 µM |  |
| COc1cc(C(O)c2nc(-c3cc(F)cc(F)c3)cs2)ccc1F (stereo not drawn) | inconclusive: 28.2 µM [inhibitor, single point] |  |
| Cc1cc(C)cc(N(C(C)C(=O)NCCC2=CCCCC2)S(C)(=O)=O)c1 (stereo not drawn) | inconclusive: 3.55 µM [inhibitor, partial curve] |  |
| Cc1ccc(S(=O)(=O)N2c3ccccc3CC2C)cc1 (stereo not drawn) | inconclusive: 1.58 µM [inhibitor, partial curve, poor fit] |  |
| C=CC[C@@H](CC(=O)OC(C)(C)C)C(=O)OC[C@H]1CCCN1C(=O)[C@@H](CC=C)CC(=O)N(CCO)Cc1ccccc1 | inconclusive: 31.6 µM [inhibitor, partial curve, poor fit] |  |
| COC(=O)c1c(NC(=O)Cc2coc3ccc(C(C)C)cc23)sc2c1CCC2 | inactive |  |
| CC1(C)NC(=O)N(CC(=O)OCC(=O)Nc2cc(S(=O)(=O)N3CCCCC3)ccc2Cl)C1=O | inconclusive: 8.91 µM [inhibitor, partial curve, poor fit] |  |
| N#CC1=C(S)N=C(N)C(c2nc(-c3ccccc3)cs2)C12CCCC2 (stereo not drawn) | inactive |  |
| N#Cc1c(N)sc2c1CCN(CCc1ccccc1)C2 | inactive |  |
| CC(C)=CCn1c2ccc(NC(=O)NCc3ccc(F)cc3)cc2c(=O)n1C | inconclusive: 2.24 µM [inhibitor, full curve, poor fit] |  |
| Cc1ccc(-c2c(C(=O)N/N=C/c3cccs3)nnn2-c2nonc2N)cc1 | inconclusive: 28.2 µM [inhibitor, single point] |  |
| C=CCn1c(-c2ccc(OC)cc2)nc2nc3ccccc3nc21 | inactive |  |
| CCSc1nnc(NC(=O)CCNS(=O)(=O)c2cc(Br)cnc2N)s1 | inconclusive: 14.1 µM [inhibitor, single point] |  |
| Cc1occc1C(=O)NNC(=S)NCc1ccc(Cl)cc1 | inconclusive: 14.1 µM [inhibitor, single point] |  |
| Cc1cccc(N(C(=O)CCC(=O)Nc2cc(C)on2)C(C(=O)NC2CCCC2)c2ccc(C)o2)c1 (stereo not drawn) | inconclusive: 22.4 µM [inhibitor, single point] |  |
| N=C1/C(=C/c2cccn2CCOc2ccccc2)C(=O)N=C2SC=C(c3ccccc3)N12 | inconclusive: 5.01 µM [inhibitor, full curve, poor fit] |  |
| O=C(N[C@@H](Cc1ccccc1)C(=O)OCc1ccccc1)c1ccco1 | inconclusive: 12.6 µM [inhibitor, partial curve] |  |
| CC(Oc1ccc(F)cc1)C(=O)Nc1cc(S(=O)(=O)N2CCCCC2)ccc1N1CCN(C)CC1 (stereo not drawn) | inconclusive: 28.2 µM [inhibitor, single point] |  |
| CCCCOc1ccc(C2=CSC3=NCCN23)cc1[N+](=O)[O-] |  | inconclusive: -88.6% [inhibitor] |
| Clc1cc(Br)ccc1NCc1cccnc1 | inconclusive: 28.2 µM [inhibitor, single point] |  |

| SMILES | Potency | activity change, negative = inhibition |
| --- | --- | --- |
| COc1cccc(CN2CCN(C(=O)c3cc(-c4ccccn4)nc4ccc(Cl)cc34)CC2)c1 | inconclusive: 7.94 µM [inhibitor, partial curve, poor fit] |  |
| COc1cccc(C(=O)Nc2nc(-c3ccc4c(c3)OCO4)cs2)c1 | inconclusive: 20 µM [inhibitor, single point] |  |
| O=C(C1CCN(S(=O)(=O)c2ccccc2F)CC1)N1CCCC1 | inactive |  |
| CCc1nn(CC(=O)N(C)Cc2ccccc2)c(=O)c2cc3sccc3n12 | inactive |  |
| Cc1ccc(CSCCC(=O)NCc2ccc(F)cc2Cl)cc1 | inconclusive: 22.4 µM [inhibitor, single point] |  |
| CC(=O)c1cccc(NS(=O)(=O)c2cc(-c3cnc(C4CC4)o3)ccc2C)c1 | inconclusive: 316 nM [inhibitor, full curve, poor fit] and inconclusive: 1.26 µM [inhibitor, full curve, poor fit] |  |
| CCc1nn(C(CC)C(=O)NCCCN2CC(C)CC(C)C2)c(=O)c2cc3oc(C)cc3n12 (stereo not drawn) | inconclusive: 6.31 µM [inhibitor, partial curve, poor fit] |  |
| Oc1ccc(Br)cc1/C=N/Nc1nc(N2CCCCC2)nc(N2CCOCC2)n1 | inconclusive: 2 µM [inhibitor, partial curve, poor fit] |  |
| O=c1oc2c3c(ccc2c2ccccc12)OCN(Cc1ccccc1Cl)C3 | inactive |  |
| COc1ccc(CC(=O)Nc2cccc(/C(C)=N/NC(=O)c3cccc([N+](=O)[O-])c3)c2)cc1 | inconclusive: 3.16 µM [inhibitor, partial curve, poor fit] |  |
| CCCn1c(=N)n(CC(=O)C(C)(C)C)c2ccccc21 | inconclusive: 28.2 µM [inhibitor, partial curve, poor fit] |  |
| Cc1ccc(C)c(C(=O)OCC(=O)N(C)c2ccccc2)c1 | inconclusive: 15.8 µM [inhibitor, partial curve, poor fit] |  |
| COCCNC(=O)C(=O)N/N=C(\C)CC(=O)Nc1ccc(Cl)cc1Cl | inconclusive: 12.6 µM [inhibitor, single point] |  |
| CC(C)(C)c1cc(CN2CCN(CCO)CC2)cc(C(C)(C)C)c1O | inactive |  |
| CCS(=O)(=O)c1ncc(Cl)c(C(=O)Nc2ccccc2)n1 | inconclusive: 28.2 µM [inhibitor, single point] |  |
| O=C(N/N=C/c1cc([N+](=O)[O-])ccc1Cl)c1cnccn1 | inconclusive: 5.01 µM [inhibitor, single point] |  |
| Cc1cccc(Cc2cnc(NC(=O)c3ccc(C)o3)s2)c1 | inconclusive: 14.1 µM [inhibitor, partial curve, poor fit] |  |
| COc1cc(Cl)c(NS(=O)(=O)c2cc(-c3cc(C)no3)ccc2OC)c(OC)c1 | inconclusive: 12.6 µM [inhibitor, single point] |  |
| O=C(CN1C(=O)c2ccccc2C1=O)Nc1ccccc1C(=O)NC1CCCCCC1 | inconclusive: 28.2 µM [inhibitor, single point] |  |
| COc1ccc(Cl)cc1NC(=O)NCC1CCN(Cc2cc(C)ccc2C)CC1 | inconclusive: 10 µM [inhibitor, partial curve, poor fit] |  |
| O=c1oc2ccccc2n1Cc1ccccc1 | inconclusive: 5.62 µM [inhibitor, partial curve] |  |
